# Reference: PubChem BioAssay AID485294 (National Center for Advancing Translational Sciences (NCATS), 2010)
# The campaign covered roughly 370,000 compounds. About 150 (0.041%) were called active. The shares of active, inactive and inconclusive entries below differ from those in the screen. The call rests on the fitted dose curve; in most records, active means well fitted inhibition curve with a large enough effect; inconclusive means small, poorly fitted or top-dose-only effect; inactive means flat fitted curve, though single readings scatter. No potency is given beside an inconclusive call; the fits are too rough.
# Molecular target: Beta-lactamase (Escherichia coli (strain K12)) (UniProt P00811)
# Assay: qHTS Inhibitors of AmpC Beta-Lactamase (assay with detergent); further: nearly all actives have a fitted effect of over 25% in size;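 on activity change, negative = inhibition: 0% = no-compound wells and -100% = no-enzyme wells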
# Settings: AmpC hydrolysis of nitrocefin, absorbance 480 nm, 0.01% Triton; activity change, negative = inhibition: at 114 µM (top of the series)
# Method in brief: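 20 mM phosphate pH 7.0 + 0.01% (detergent screen) or 0.0001% Triton X-100; 5.3 nM AmpC reagent; cpd preinc 15 min RT; nitrocefin (800 uM stock) to start; A480 q20 s × 4 min; Activity was normalised to no-enzyme and no-compound control wells.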
# Potency means the concentration at half of the fitted maximal effect; tags describe the fitted curve by direction and shape.
# UniProt P00811, sequence (P00811 whole entry, looked up): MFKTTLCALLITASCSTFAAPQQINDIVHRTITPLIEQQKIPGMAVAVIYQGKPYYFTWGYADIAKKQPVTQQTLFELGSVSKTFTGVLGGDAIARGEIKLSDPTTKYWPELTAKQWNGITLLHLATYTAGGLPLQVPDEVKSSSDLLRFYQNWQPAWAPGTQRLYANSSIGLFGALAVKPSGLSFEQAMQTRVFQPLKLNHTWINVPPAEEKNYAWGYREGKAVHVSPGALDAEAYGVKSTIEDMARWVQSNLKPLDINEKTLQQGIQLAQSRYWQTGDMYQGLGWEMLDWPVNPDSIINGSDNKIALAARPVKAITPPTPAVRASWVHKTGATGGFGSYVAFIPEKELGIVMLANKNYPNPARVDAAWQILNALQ
SMILES,"activity change, negative = inhibition",Potency
COC(=O)Cc1c(C)c2ccc3c(c2oc1=O)CN(Cc1ccc(Cl)cc1)CO3,inactive: 14.5%,–
CCOc1ccc(-n2cc(-c3ccccc3)c3c(NCc4ccccc4)ncnc32)cc1,inactive: -1.54%,–
O=C(CN1C(=O)NC2(CCCC2)C1=O)OCc1ccc(F)cc1,–,"inconclusive [inhibitor, full curve, poor fit]"
COc1ccc(C/C(C)=N/NC(=S)Nc2ccccc2)cc1,inactive: -7.28%,–
COc1ccc(-c2cc(C(F)(F)F)n3ncc(C(=O)N4CCCCC4c4cccnc4)c3n2)cc1 (stereo not drawn),inactive: -7.57%,–
Cc1ccc(NC(=O)Cc2c(Cl)cccc2Cl)cc1S(=O)(=O)N(C)C,–,"inconclusive [inhibitor, partial curve]"
COc1cc(OC)c(C(=O)COc2ncnc3ccccc23)c(OC)c1,–,"inconclusive [inhibitor, full curve, poor fit]"
CCOc1cc(C(=S)N2CCOCC2)ccc1OC(=O)c1cccc(C)c1,–,"inconclusive [inhibitor, partial curve, poor fit]"
Cc1ccc(S(=O)(=O)NCC(=O)OCC(=O)N2CCc3ccccc32)cc1,–,"inconclusive [inhibitor, full curve, poor fit]"
CC1CCCCC1NC(=S)NC(=O)c1cccs1 (stereo not drawn),inactive: -13.9%,–
Cc1ccc(C)c2[nH]c(=O)c(CCNC(=O)CCc3ccccc3)cc12,–,"inconclusive [inhibitor, partial curve, poor fit]"
CCCC(=O)Nc1ccc(S(=O)(=O)N2CCC(c3nc4ccccc4[nH]3)CC2)cc1,–,"inconclusive [inhibitor, full curve, poor fit]"
COc1ccc(C(=O)NC(=S)NNC(=O)c2cnccn2)cc1,inactive: -2.89%,–
O=C(Nc1ccc(Cl)c(S(=O)(=O)N2CCOCC2)c1)c1ccccc1-c1ccc(C(F)(F)F)cc1,–,"inconclusive [inhibitor, full curve]"
Cn1cccc1Cc1nnc(SCC(=O)N2CCc3ccccc32)n1CCc1ccccc1,–,"inconclusive [inhibitor, full curve, poor fit]"
CC(C)(C)NC(=O)/C=C/c1cccs1,–,"inconclusive [inhibitor, full curve, poor fit]"
CC(NC(=O)c1cc(-c2cccs2)on1)c1ccccc1 (stereo not drawn),inactive: -7.84%,–
Cn1cccc1Cc1nnc(SCC(=O)Nc2ccc(Cl)cc2)n1-c1ccc(F)cc1,–,"inconclusive [inhibitor, full curve, poor fit]"
CCOC(=O)C1(CC2CCCCO2)CCN(C(=O)Nc2cccc(SC)c2)CC1 (stereo not drawn),inactive: -0.718%,–
COc1cc(CNc2ccccc2SC)ccc1O,–,"inconclusive [inhibitor, full curve, poor fit]"
O=C(c1ccccc1F)N1CCc2ccccc21,–,"inconclusive [inhibitor, full curve, poor fit]"
COc1ccnc(Oc2ccc(F)cc2)c1C(=O)N/C=N/OCc1c(Cl)cccc1Cl,inactive: -10%,–
COc1cccc(NC(=O)CN(C)C(=O)c2ccccc2OCc2c(C)noc2C)c1,–,"inconclusive [inhibitor, full curve, poor fit]"

SMILES,"activity change, negative = inhibition",Potency
O=C(COC(=O)c1ccc(O)cc1O)c1ccc(Cl)cc1,–,"inconclusive [inhibitor, partial curve, poor fit]"
COc1ccc(OC)c(CN2CCN(C(=O)c3ccco3)CC2)c1,inactive: -0.797%,–
O=C1CC(N2CCN(c3ccc(Cl)cc3)CC2)C(=O)N1c1ccccc1 (stereo not drawn),inactive: 4.95%,–
CCOC(=O)C(NCc1ccc2c(c1)OCO2)(NC(=O)c1ccccc1)C(F)(F)F (stereo not drawn),inactive: -2.24%,–
CCCN1C(=O)/C(=C\C=C2/C=CN(CC)c3ccccc32)SC1=S,–,"inconclusive [inhibitor, full curve, poor fit]"
Cc1ccc(NC(=O)Nc2nnc(CSCCOc3ccc(Cl)cc3)s2)cc1,–,"inconclusive [inhibitor, single point]"
CCC(C(=O)NCc1ccco1)N(C(=O)CNS(=O)(=O)c1ccc(F)cc1)c1ccccc1F (stereo not drawn),–,"inconclusive [inhibitor, single point]"
CCOC(=O)Cc1nn(C)c(=O)c2ccccc12,–,"inconclusive [inhibitor, full curve, poor fit]"
CCCOc1ccc(C(=O)Nc2cc(-c3nc4ccccc4[nH]3)ccc2C)cc1,inactive: 11.5%,–
NC(=O)C(c1ccccc1)C1CCCC1 (stereo not drawn),–,"inconclusive [inhibitor, partial curve]"
COc1ccc2c(c1OC)C(=O)N(c1ccccn1)C2,–,"inconclusive [inhibitor, full curve, poor fit]"
COc1cccc(CN2CCCN(Cc3ccc(F)cc3)S2(=O)=O)c1,inactive: 9.87%,–
Cc1ccc(NS(=O)(=O)c2ccc(C3CCCCC3)cc2)cc1,–,"inconclusive [inhibitor, single point]"
CCn1cc(C(=O)OCc2ccccc2)c(=O)c2ccc(C)nc21,–,"inconclusive [inhibitor, single point]"
COc1ccc(-c2nn(C)c3sc(C(=O)Nc4cc(OC)c(OC)c(OC)c4)cc23)cc1OC,inactive: -3%,–
CC(=O)N1CCc2ccc(S(=O)(=O)N3CCN(C)CC3)cc21,–,"inconclusive [inhibitor, full curve, poor fit]"
CCCCC(CC)CNC(=O)c1ccc(Cn2c(=O)[nH]c3cc(OC)c(OC)cc3c2=O)cc1 (stereo not drawn),inactive: 6.65%,–
COc1ccccc1N1CC(C(=O)NCCC2=CCCCC2)CC1=O (stereo not drawn),–,"inconclusive [inhibitor, full curve, poor fit]"
O=C(c1ccccc1)c1ccc(Oc2ncccn2)cc1,–,"inconclusive [inhibitor, single point]"
CC(=O)N1CCN(c2ccc(S(C)(=O)=O)cc2[N+](=O)[O-])CC1,–,"inconclusive [inhibitor, partial curve]"
CCOC(=O)c1nn(-c2cccc(Cl)c2)c2nc(CC(C)C)c(C#N)c(=O)n12,–,"inconclusive [inhibitor, full curve, poor fit]"
O=C(Cn1c(=O)c(=O)n(Cc2ccccc2)c2ccc(Cl)cc21)Nc1cccc(F)c1,–,"inconclusive [inhibitor, partial curve, poor fit]"
O=C1CC(c2ccccc2)CC(O)=C1C=NCCCO (stereo not drawn),–,"inconclusive [inhibitor, full curve]"

SMILES,"activity change, negative = inhibition",Potency
CC(C)n1c(SCC(=O)c2ccc(F)cc2)nc2c(sc3ccccc32)c1=O,inactive: -3.03%,–
Cc1sc2ncnc(Sc3nnc4sc5ccccc5n34)c2c1C,–,"inconclusive [inhibitor, full curve, poor fit]"
CN(C)/C=N/c1c(C#N)cnn1-c1ccccc1,–,"inconclusive [inhibitor, full curve, poor fit]"
COc1ccc(-c2nc3ccccc3n2OC(=O)N(C)C)cc1,–,"inconclusive [inhibitor, single point]"
CCOCCCn1c(=S)[nH]c2cc(C(=O)N3CCC(C(N)=O)CC3)ccc2c1=O,–,"inconclusive [inhibitor, partial curve, poor fit]"
CCOc1ccccc1CNCc1c(C(=O)O)c(C)n(Cc2ccc(Cl)cc2)c1C,inactive: 14.2%,–
O=C1CC(N2CCC(c3nc4ccccc4s3)CC2)C(=O)N1 (stereo not drawn),–,"inconclusive [inhibitor, partial curve]"
CSc1nc2ccc3nc(NC(=O)c4ccc(Cl)s4)sc3c2s1,–,"inconclusive [inhibitor, full curve, poor fit]"
Cc1ccc(OCC(=O)Nc2nnn(C)n2)c(C)c1,–,"inconclusive [inhibitor, full curve, poor fit]"
O=C(OCC(=O)N1CCCCC1)c1c[nH]c2ccccc12,–,"inconclusive [inhibitor, full curve, poor fit]"
N#CC1=C(N)OC2=C(C(=O)CCC2)C12CCN(C(=O)OCc1ccccc1)CC2,–,"inconclusive [inhibitor, partial curve]"
CCOc1ccc(NC(=O)COC(=O)c2cccnc2)cc1,–,"inconclusive [inhibitor, full curve, poor fit]"
Cc1ccc(Cl)cc1NC(=O)CSc1ccc(C(=O)O)cn1,inactive: 11.3%,–
CCCCc1ccc(NC(=S)N2CCCC(C)C2)cc1 (stereo not drawn),–,"inconclusive [inhibitor, full curve, poor fit]"
Cn1c(SCC(=O)Nc2ccccc2Br)nnc1-c1cnccn1,inactive: -3.94%,–
CCc1ccc(NC(=O)c2cnn3c(C(F)F)cc(C)nc23)cc1,–,"inconclusive [inhibitor, single point]"
CCCCN(CCCNC(=O)c1ccc2nc(N3CCOCC3)sc2c1)Cc1ccccc1,–,"inconclusive [inhibitor, full curve, poor fit]"
C=C1CC[C@H](O)C/C1=C/C=C1\CCC[C@]2(C)[C@@H]([C@H](C)/C=C/[C@H](C)C(C)C)CC[C@@H]12,–,"inconclusive [inhibitor, full curve, poor fit]"
Cc1nc2ccccc2c(=O)n1NC(=O)/C=C/c1ccccc1,–,"inconclusive [inhibitor, partial curve, poor fit]"
O=C1NC(CCc2ccccc2)C(=O)N1CCOc1ccccc1 (stereo not drawn),inactive: 2.97%,–
CC(=O)Nc1ccc(S(=O)(=O)N2CCN(CCCOc3ccccc3Cl)CC2)cc1,–,"inconclusive [inhibitor, full curve, poor fit]"
CC(C)Sc1nc2c(c(=O)[nH]c(=O)n2C)n1Cc1ccccc1,–,"inconclusive [inhibitor, single point]"
